According to the supplement of paper PMC3334620:
Whole data set: some 33,000 sequences, median “E-score (-0.5 to 0.5)” near -0.035, cut for the highest 2% near 0.35. This is one part of the list.

What follows are sequences tested against T1, Pdr3 (UniProt P33200) (assay: PBM E-score (8-mer binding enrichment) (E-score (-0.5 to 0.5)); higher = stronger / more preferred TF binding; most listed sequences are background and not binding sites). Settings: protein concentration: 200 nM; construct: GST-full length.
T1 sequence: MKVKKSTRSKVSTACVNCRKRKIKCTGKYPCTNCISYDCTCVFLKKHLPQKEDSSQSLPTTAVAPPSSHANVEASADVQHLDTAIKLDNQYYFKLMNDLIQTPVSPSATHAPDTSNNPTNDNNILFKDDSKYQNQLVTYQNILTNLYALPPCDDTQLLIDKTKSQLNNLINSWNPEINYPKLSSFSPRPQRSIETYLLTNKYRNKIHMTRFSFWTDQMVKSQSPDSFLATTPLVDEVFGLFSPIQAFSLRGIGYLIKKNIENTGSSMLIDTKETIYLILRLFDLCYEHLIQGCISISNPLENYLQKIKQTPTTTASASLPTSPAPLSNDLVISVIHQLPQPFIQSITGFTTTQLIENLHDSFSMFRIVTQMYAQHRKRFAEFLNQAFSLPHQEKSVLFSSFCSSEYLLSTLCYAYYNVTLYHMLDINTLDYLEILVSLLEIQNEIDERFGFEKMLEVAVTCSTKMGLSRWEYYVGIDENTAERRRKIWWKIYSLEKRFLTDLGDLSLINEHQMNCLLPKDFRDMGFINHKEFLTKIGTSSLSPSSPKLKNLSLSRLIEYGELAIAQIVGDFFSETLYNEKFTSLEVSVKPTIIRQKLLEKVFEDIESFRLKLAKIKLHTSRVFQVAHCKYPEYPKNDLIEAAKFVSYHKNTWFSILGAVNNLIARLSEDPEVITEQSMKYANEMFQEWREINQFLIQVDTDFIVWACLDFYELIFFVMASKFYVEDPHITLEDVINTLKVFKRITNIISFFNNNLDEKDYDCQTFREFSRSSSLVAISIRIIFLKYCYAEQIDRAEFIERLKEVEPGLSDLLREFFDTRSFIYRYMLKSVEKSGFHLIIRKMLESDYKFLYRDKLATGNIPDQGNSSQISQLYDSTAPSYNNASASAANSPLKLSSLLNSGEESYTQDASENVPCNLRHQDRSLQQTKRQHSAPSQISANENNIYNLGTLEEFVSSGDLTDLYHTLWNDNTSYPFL
Experimental: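 Universal 'all 10-mer' protein binding microarrays (Agilent AMADID 015681) probed with GST-tagged S. cerevisiae TFs (full-length or DBD) made by in vitro transcription/translation (PURExpress), about 100-200 nM. Bound TF was detected with fluorescent anti-GST. Each ungapped 8-mer (which stands for itself and its reverse complement) is scored by the PBM enrichment score (E-score), a modified Wilcoxon-Mann-Whitney statistic from -0.5 to +0.5, computed with the Universal PBM Analysis Suite. Scale: above 0.35 generally sequence-specific binding.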

Sequence	PBM E-score
ACCCCAAA	0.195
CCTAAATA	-0.155
AGCACCTC	0.0515
ATGAATGA	0.0256
GGAAAGCC	0.266
CCCATGAG	-0.0814
GTCCCTTA	0.0278
ATTGGCCA	0.0225
TGGTGCAA	-0.159
GGAGTATA	0.0665
GACCTCCA	0.0566
TCCGGCGA	0.356
CCGGACAA	0.329
AACGCGGC	0.123
CGGTCTTC	0.123
GTGATCGA	0.0343
GTACGCCA	-0.192
CTGACTAC	-0.18
ACTAAACG	-0.0578
GAGAGCTA	0.0205
AACGACGA	-0.00945
GAAGATGA	-0.155

Sequence	PBM E-score
ACCGTACA	-0.209
AAACTATC	-0.109
ACATCATC	0.0908
CTGGGTGC	-0.223
GGCCAATA	0.18
ACCGGCGA	0.281
CTCTATAA	-0.299
ATAAGCAC	-0.01
CATATAGG	-0.105
TACTGACA	0.125
ACTGTGAT	-0.0576
TAGCGGCA	0.107
GGGAGGAA	0.11
AAACCAGC	0.0675
GAAGTGGA	0.089
CGATTCCG	0.466
CTCGTAGA	-0.424
AGCTTACA	-0.174
CCAGATGA	0.0102
TAGGTCCA	-0.122
TATCTTAA	-0.0962
ATTATCAC	0.0301

Sequence	PBM E-score
AATACGTA	0.0467
ATAAGGAC	-0.0607
CAACGGTA	0.0448
ACACGTGC	-0.105
ACGGGAGC	0.0886
CACAGCAG	-0.234
CATGAACG	-0.0457
AGTCTCAC	-0.0728
GGGGGCGA	-0.149
CTGCGTAC	-0.195
CCCAAGCC	-0.101
AATCGATT	0.0409
CAGCCACA	-0.0182
CTGGCACC	-0.049
CTAACCTC	-0.0875
GAGGCCCC	-0.0135
AGGCCCAT	-0.0631
AAAGGAAC	0.0772
GCGCCCAA	0.049
TCTATAGA	-0.251
CCGAGAGC	0.152
GCATGGCA	0.16

Sequence	PBM E-score
CACCGCAC	-0.11
GCGAAACC	0.00164
ACGGGTAA	0.0609
CAGCTTGG	0.00196
ACCGCGTC	0.0777
TATCGTAA	0.0543
AAAAGCAG	-0.239
GGTGATAC	-0.0128
ATTAGCAA	0.0647
AAAGGTTA	-0.281
ACCGCCGC	0.284
GCTAAGCA	-0.121
CGTTGTAA	-0.0759
ACCCTGGC	-0.137
GTAAGATA	0.0502
ATATGGTA	0.0282
AACGTAGT	-0.185
CACATTGA	0.0119
GGACGAAC	0.232
CCGAATAC	0.27
